Hit rate of the full screen: of about 91,000 compounds, about 290 (0.32%) were called active. The inconclusive results got no clear call from the source; some entries with a clear call stand among them for comparison. Calls follow the shape of the dose curve; as a rule, active = well fitted inhibition curve with a large enough effect; inconclusive = small, poorly fitted or top-dose-only effect; inactive = no such curve, though single readings can be large or run the other way. A potency beside an inconclusive call is a rough fit, not a confirmed value.
Each compound was assayed against Single-stranded DNA cytosine deaminase (Homo sapiens) (UniProt Q9GZX7) (assay: Primary qHTS assay for inhibitors of Activation Induced Cytidine Deaminase (AID): AID signal). Details: AID deamination FRET fluorescence, UDG-coupled, 4 h; activity change, negative = inhibition: at 115 µM (top of the series).
Sequence of UniProt Q9GZX7 (Q9GZX7 whole entry, looked up): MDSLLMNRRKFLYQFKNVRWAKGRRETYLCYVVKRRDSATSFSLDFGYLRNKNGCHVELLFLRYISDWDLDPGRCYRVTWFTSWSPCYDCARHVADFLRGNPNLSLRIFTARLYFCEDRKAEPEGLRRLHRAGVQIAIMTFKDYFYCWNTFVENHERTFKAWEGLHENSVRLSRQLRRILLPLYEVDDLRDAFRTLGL
`Cc1cc(NC(=O)Cn2nc(C)n3cccc3c2=O)ccc1Br` was tested, and the Potency was inconclusive: 11.2 µM [inhibitor, full curve, poor fit]. In the case of `CC(C)(C)OC(=O)N1CCC(c2c(C(=O)Nc3ccc4c(c3)OCCO4)cnn2-c2ccccc2)CC1`, the Potency is reported as inconclusive: 20 µM [inhibitor, partial curve, poor fit]. `CCOc1ccc(Br)cc1CNCCSc1nnnn1-c1ccccc1` was tested, and the Potency was inconclusive: 15.8 µM [inhibitor, full curve, poor fit]. `COc1ccc(N(Cc2cccs2)C(=O)COc2ccc(C(C)C)cc2)cc1` was tested, and the Potency was inconclusive: 14.1 µM [inhibitor, full curve, poor fit]. With `CCN(CC)S(=O)(=O)c1ccc2c(c1)N(CC(=O)Nc1ccc(C)cc1C)C(=O)C1CCCN21` (centres undefined) the Potency was inconclusive: 35.5 µM [inhibitor, partial curve]. In the case of `COc1cccc(C(=O)Nc2ccc3nc(N4CCC(C)CC4)cc(C)c3c2)c1`, the Potency is reported as inconclusive: 50.1 µM [inhibitor, partial curve, poor fit]. In the case of `Cc1ccc(S(=O)(=O)Nc2nc3n(n2)C(c2ccccc2Cl)C=C(c2ccccc2)N3)cc1` (centres undefined), the Potency is reported as inconclusive: 79.4 µM [inhibitor, partial curve, poor fit]. In the case of `Cc1ccc(N/N=C/C(Br)=C/c2ccccc2)cc1Cl`, the “activity change, negative = inhibition” value is reported as inactive: 12%. For `Cn1c(SCC(=O)c2ccc(F)cc2)nnc1-c1ccccc1Br`, the Potency was inconclusive: 39.8 µM [inhibitor, partial curve, poor fit]. In the case of `Cc1ccc(NC(=O)C2CCCN2S(=O)(=O)c2cccc3nsnc23)cc1Cl` (centres undefined), the Potency is reported as inconclusive: 31.6 µM [inhibitor, single point]. `Clc1ccccc1C(c1ccccc1)(c1ccccc1)n1ccnc1` was tested, and the Potency was inconclusive: 50.1 µM [inhibitor, partial curve, poor fit]. `CN(C)c1ccc(CNS(=O)(=O)c2ccc3[nH]c4c(c3c2)CCCCC4)cc1` was tested, and the “activity change, negative = inhibition” value was inactive: 33.9%. `Cc1cccc(NC2=CC(c3cccc(Br)c3)N(c3cccc(C)c3)C2=O)c1` (centres undefined) was tested, and the Potency was inconclusive: 28.2 µM [inhibitor, full curve, poor fit]. In the case of `O=C(Nc1ccccc1)N(Cc1ccc(F)cc1)c1ccccn1`, the Potency is reported as inconclusive: 31.6 µM [inhibitor, full curve]. With `CCOC(=O)c1c(C)[nH]c(C(=O)OC(C)C(N)=O)c1C` (centres undefined) the “activity change, negative = inhibition” value was inactive: 0.716%. In the case of `N#Cc1nc(-c2ccccc2)oc1NCc1ccccc1`, the Potency is reported as inconclusive: 89.1 µM [inhibitor, partial curve, poor fit]. In the case of `CC(C)c1ccc(C(C)NC(=O)Cc2cccs2)cc1` (centres undefined), the “activity change, negative = inhibition” value is reported as inactive: -1.75%. `COc1ccc(-c2c(NC(=O)c3cccs3)n(C)c3ccccc3c2=O)cc1OC` was tested, and the “activity change, negative = inhibition” value was inactive: -1.24%. For `COc1cccc(CNC(=O)C2CCC(CNS(=O)(=O)c3ccc(Br)s3)CC2)c1` (centres undefined), the “activity change, negative = inhibition” value was inactive: -11.1%. For `COc1ccc(-c2noc(CSc3nnc(-c4ccncc4)n3-c3ccc(C)cc3)n2)cc1`, the Potency was inconclusive: 70.8 µM [inhibitor, partial curve, poor fit]. With `CCOc1ccc(NC(=O)CSC2=Nc3ccccc3C3=NC(CC(=O)NCc4ccco4)C(=O)N23)cc1` (centres undefined) the Potency was inconclusive: 11.2 µM [inhibitor, full curve, poor fit]. With `CSc1cccc(NC(=O)N2CCN(c3cc(-c4noc(C)n4)ccc3C)CC2)c1` the Potency was inconclusive: 14.1 µM [inhibitor, full curve, poor fit]. In the case of `CC(NC(=O)CCc1ncc(-c2ccc(F)cc2)o1)c1ccc2c(c1)NC(=O)CO2` (centres undefined), the “activity change, negative = inhibition” value is reported as inactive: -5.18%. `Cc1ccc(CNC(=O)C(=O)NCC(c2ccco2)S(=O)(=O)c2cccs2)cc1` (centres undefined) was tested, and the Potency was inconclusive: 39.8 µM [inhibitor, partial curve, poor fit]. In the case of `CC1CN(CCCOc2ccc(C#N)cc2)CCO1` (centres undefined), the “activity change, negative = inhibition” value is reported as inactive: 7.16%. `CCN(Cc1ccco1)C(=O)c1cc2cc(C)ccc2[nH]1` was tested, and the “activity change, negative = inhibition” value was inactive: 19%. With `O=C(C1CCC(Cn2c(=O)c3sccc3n(Cc3cccc(F)c3)c2=O)CC1)N1CCCCC1` (centres undefined) the Potency was inconclusive: 14.1 µM [inhibitor, partial curve, poor fit]. With `Fc1cccc(Cl)c1CSc1nc2ncccc2o1` the “activity change, negative = inhibition” value was inactive: -9.31%. For `Cc1cc(C)n2c(Nc3ccc(C(C)C)cc3)c(-c3ccsc3)nc2n1`, the Potency was inconclusive: 56.2 µM [inhibitor, partial curve, poor fit]. `CCN(CC)C(=O)CSc1nc2ccsc2c(=O)n1Cc1ccccc1Cl` was tested, and the Potency was inconclusive: 50.1 µM [inhibitor, partial curve, poor fit]. For `Cc1ccc2c(c1)-c1c(cnn1CC(=O)N1CCN(c3ccccc3F)CC1)CO2`, the Potency was inconclusive: 15.8 µM [inhibitor, partial curve, poor fit]. For `Cc1c(-c2cccc(NC(=O)Nc3ccc(Cl)cc3)c2)nc2ncccn12`, the Potency was inconclusive: 35.5 µM [inhibitor, partial curve]. `CC1CCCCN1C(=O)Cn1ncc2c3ccccc3n(Cc3ccccc3F)c2c1=O` (centres undefined) was tested, and the Potency was inconclusive: 50.1 µM [inhibitor, partial curve, poor fit]. With `Cc1ccc(-c2cnc(CCC(=O)Nc3ccc(F)c(F)c3)o2)cc1C` the “activity change, negative = inhibition” value was inactive: -5.27%. In the case of `O=c1cc(-c2ccccc2F)oc2ccc(F)cc12`, the “activity change, negative = inhibition” value is reported as inactive: -4.94%. `COCCNC(=O)Cn1c(=O)n(CCCCCC(=O)NCc2ccccc2Cl)c(=O)c2sccc21` was tested, and the Potency was inconclusive: 31.6 µM [inhibitor, partial curve, poor fit]. With `COc1ccc(-c2nc(C)c(CCNC(=O)c3cccs3)s2)cc1OC` the “activity change, negative = inhibition” value was inactive: -2.58%. `COc1cc(/C=C/C(=O)c2ccc(C3CCCCC3)cc2)cc(Br)c1O` was tested, and the “activity change, negative = inhibition” value was inactive: 82.2%. In the case of `CCOC(=O)C1CCCN(C(=O)Cn2ncc3c(C)n(Cc4ccccc4Cl)c(C)c3c2=O)C1` (centres undefined), the Potency is reported as inconclusive: 35.5 µM [inhibitor, partial curve]. `CN(C)S(=O)(=O)c1cccc(NC(=O)COc2ccc(Cl)cc2)c1` was tested, and the “activity change, negative = inhibition” value was inactive: -6.42%. `Cc1ccc(Cn2cc(C(=O)c3ccc4c(c3)OCO4)c(=O)c3cc(C)ccc32)cc1` was tested, and the Potency was inconclusive: 20 µM [inhibitor, full curve, poor fit]. In the case of `CCOC(=O)C1=C(CN2CCN(c3ccc(OC)cc3)CC2)NC(=O)NC1c1ccc(Cl)cc1` (centres undefined), the Potency is reported as inconclusive: 15.8 µM [inhibitor, full curve, poor fit]. `CCC1CCCCN1S(=O)(=O)c1cc(C(=O)Nc2ccc(C)c(F)c2)ccc1F` (centres undefined) was tested, and the Potency was inconclusive: 17.8 µM [inhibitor, full curve, poor fit]. In the case of `Cc1ccc(CNC(=O)c2cnn(-c3cccc(C)c3)c2C2CCN(C(=O)OC(C)(C)C)CC2)cc1`, the Potency is reported as inconclusive: 28.2 µM [inhibitor, partial curve, poor fit]. `Cc1cccc(C)c1OCc1cc(=O)n2c3c(sc2n1)CCCC3` was tested, and the Potency was inconclusive: 56.2 µM [inhibitor, partial curve, poor fit]. `O=C(O)c1ccc(Nc2nc(-c3ccc(Cl)cc3)cs2)cc1O` was tested, and the Potency was active: 79.4 µM. `COc1ccc(-n2cc(-c3ccccc3)c3c(NC4CCCC4)ncnc32)cc1` was tested, and the Potency was active: 35.5 µM. In the case of `Cc1cc(C)cc(NC(=O)CSc2nc(=O)n(Cc3ccccn3)c3c2CCC3)c1`, the Potency is reported as inconclusive: 70.8 µM [inhibitor, partial curve, poor fit]. For `COc1ccc2c(C)c(CC(=O)Nc3ccc(Cn4cncn4)cc3)c(=O)oc2c1`, the “activity change, negative = inhibition” value was inactive: -3.47%. In the case of `CSc1ccc(Cn2nnc(C(=O)Nc3ccc(C)cc3Cl)c2N)cc1`, the “activity change, negative = inhibition” value is reported as inactive: 10.8%. In the case of `CN(Cc1ccccc1)S(=O)(=O)c1ccc2[nH]c3c(c2c1)CCCCC3`, the Potency is reported as inconclusive: 39.8 µM [inhibitor, single point]. For `CC(=O)c1ccc(SCC(=O)N(C2CCCC2)C2CCCC2)c(F)c1`, the “activity change, negative = inhibition” value was inactive: -5.03%. `COc1cc(OC)c(N(C)C(=O)c2cn(C3CCCC3)c(=O)c3c2c2ccccc2n3C)cc1Cl` was tested, and the Potency was inconclusive: 56.2 µM [inhibitor, partial curve, poor fit]. With `Cc1cc(C)cc(CCCCCCCCCCCC(=O)O)c1` the Potency was active: 79.4 µM. For `COc1cccc(-n2cnc3c2NC(=O)CC3c2ccccc2)c1` (centres undefined), the Potency was inconclusive: 89.1 µM [inhibitor, partial curve]. `Cc1ccc(Cl)cc1N1CCN(C(=O)c2ccc3c(c2)CCN3S(=O)(=O)c2ccccc2)CC1` was tested, and the Potency was inconclusive: 7.08 µM [inhibitor, partial curve, poor fit]. With `CC1CCN(S(=O)(=O)c2ccc3c(c2)c(=O)c(C(=O)NC(C)c2ccccc2)cn3C)CC1` (centres undefined) the Potency was inconclusive: 22.4 µM [inhibitor, partial curve, poor fit]. For `CC(c1ccccc1)n1cc2c(c1-c1ccccc1Br)c(=O)n(C)c(=O)n2C` (centres undefined), the Potency was inconclusive: 50.1 µM [inhibitor, partial curve, poor fit]. `CCOC(=O)c1cc(-c2ccccc2)sc1NC(=O)CCN1CCN(C)CC1` was tested, and the “activity change, negative = inhibition” value was inactive: -21.6%. In the case of `CCCCOc1cccc(C(=O)Nc2cc(NC(=O)c3ccco3)ccc2OC)c1`, the Potency is reported as inconclusive: 100 µM [inhibitor, single point]. With `Cc1ccc(Cl)cc1N1CCN(C(=O)c2c(C)oc3ncnc(N4CCCCC4)c23)CC1` the Potency was inconclusive: 50.1 µM [inhibitor, partial curve, poor fit]. `COc1ccc(CCNC(=O)c2cnn(-c3cccc(C)c3)c2C2CCN(C(=O)OC(C)(C)C)CC2)cc1OC` was tested, and the Potency was inconclusive: 15.8 µM [inhibitor, full curve, poor fit]. For `CCOc1ccc(Nc2c(S(=O)(=O)c3ccc(Cl)cc3)cnc3ccc(OCC)cc23)cc1`, the Potency was inconclusive: 15.8 µM [inhibitor, partial curve, poor fit]. `Cc1ccsc1CN(C(=O)c1oc2ccc(Br)cc2c1C)C1CCS(=O)(=O)C1` (centres undefined) was tested, and the Potency was inconclusive: 28.2 µM [inhibitor, full curve, poor fit].

Source: PubChem BioAssay AID1347428 (National Center for Advancing Translational Sciences (NCATS), 2020)
% is scaled to controls: 0 for no effect and ±100 for the full control effect; potency is read from the fitted curve at half-maximal effect; tags tell the direction and shape of the fitted curve.
Also: nearly all actives have a fitted effect of over 25% in size.
